Laboratory results as given in the supplement of paper PMC9588766.
Structures can show the parent of a compound that is named as a salt. ± gives the standard deviation of the averaged measurements. In all, about 2,000 compounds were measured (“cell viability relative to DMSO control (compound alone)”: median about 0.98, lowest 2% from about 0.23 on). The list shows a part of the results.

tested on: PDC-DUC18828; assay: cell viability relative to DMSO control (compound alone) (fraction); PDC-DUC18828 is a patient-derived cholangiocarcinoma cell line; higher = less growth inhibition; conditions: 1 µM; 72 h
Description: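 Selleck Bioactive library screen in the patient-derived FGFR2-G3BP2 fusion-positive ICC cell line PDC-DUC18828 (500 cells/well). Each compound was tested at 1 uM alone, in triplicate, for 72 h. Viability was read by CellTiter-Glo and normalised to plate DMSO controls.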

Row | Compound | cell viability
1 | O=C(NCc1ccc(Oc2ccccc2)cc1)c1nc(-c2cc(Br)c(O)c(Br)c2)no1 | 0.983 ± 0.076
2 | S=c1nc[nH]c2nc[nH]c12 [6-Mercaptopurine (6-MP) Monohydrate] | 0.925 ± 0.064
3 | NCc1c[nH]c(=S)n1[C@H]1CCc2c(F)cc(F)cc2C1 [Nepicastat (SYN-117) HCl] | 1.02 ± 0.044
4 | Nc1nccs1 [Aminothiazole] | 1.09 ± 0.013
5 | NC(=O)c1cccnc1 [Nicotinamide (Vitamin B3)] | 1.03 ± 0.026
6 | CCCc1nc(C(C)(C)O)c(C(=O)OCc2oc(=O)oc2C)n1Cc1ccc(-c2ccccc2-c2nnn[nH]2)cc1 [Olmesartan Medoxomil] | 1.08 ± 0.07
7 | Cn1c(=O)c2c(ncn2CC(O)CO)n(C)c1=O (configuration not stated) [Dyphylline] | 0.988 ± 0.022
8 | CC(C)(C)c1ccc(S(=O)(=O)NCc2ccc(C(=O)Nc3cccnc3)cc2)cc1 | 0.496 ± 0.024
9 | CO[C@H]1C(=O)[C@]2(C)[C@@H](OC)C[C@H]3OC[C@@]3(OC(C)=O)[C@H]2[C@H](OC(=O)c2ccccc2)[C@]2(O)C[C@H](OC(=O)[C@H](O)[C@@H](NC(=O)OC(C)(C)C)c3ccccc3)C(C)=C1C2(C)C [Cabazitaxel] | 0.288 ± 0.019
10 | O=S(=O)(O)CCSSCCS(=O)(=O)O [Dimesna] | 0.921 ± 0.037
11 | Clc1ccccc1C(c1ccccc1)(c1ccccc1)n1ccnc1 [Clotrimazole] | 0.988 ± 0.032
12 | NC(=O)NO [Hydroxyurea] | 1 ± 0.028
13 | Clc1ccc(COC(Cn2ccnc2)c2ccc(Cl)cc2Cl)cc1 (configuration not stated) [Econazole nitrate] | 0.922 ± 0.073
14 | CCc1cc(/C(C)=N/OCc2ccc(C3CCCCC3)c(C(F)(F)F)c2)ccc1CN1CC(C(=O)O)C1 [BAF312 (Siponimod)] | 0.977 ± 0.026
15 | Cc1cc(CS(=O)(=O)c2ccccc2)cc(OCc2ccc(CN3CCC[C@@H]3CO)cc2)c1 | 0.949 ± 0.033
16 | COc1cc2c(cc1OC)CN(CCc1ccc(NC(=O)c3cccc4c(=O)c5cccc(OC)c5[nH]c34)cc1)CC2 | 0.959 ± 0.01
17 | CCN(CCCc1ccccc1)CCCc1ccccc1 [Alverine Citrate] | 0.912 ± 0.042
18 | Cn1cnc(N)c2ncnc1-2 [3-Methyladenine] | 1.04 ± 0.04
19 | Cc1c(O)cccc1C(=O)N[C@@H](CSc1ccccc1)[C@H](O)CN1C[C@H]2CCCC[C@H]2C[C@H]1C(=O)NC(C)(C)C [Nelfinavir Mesylate] | 0.964 ± 0.066
20 | CN(C)CCC(c1ccccc1)c1ccccn1 (configuration not stated) [Pheniramine Maleate] | 1.02 ± 0.042
21 | Nc1ccn([C@@H]2O[C@H](CO)[C@@H](O)[C@H]2O)c(=O)n1 [Cytidine] | 1.04 ± 0.1
22 | CC(C)NCCCn1c(Sc2cc3c(cc2I)OCO3)nc2c(N)ncnc21 | 0.575 ± 0.08
